Drawing on article PMC3605390, “Characterisation of ATP-Dependent Mur Ligases Involved in the Biogenesis of Cell Wall Peptidoglycan in Mycobacterium tuberculosis” (PLoS ONE, 2013), this text covers binding for one molecule.

Common to all, as to assay: split reporter
The target in test [1] is T1, MurD synthetase (Rv2155c) of Mycobacterium tuberculosis, M-PFC fusion (Mycobacterium tuberculosis H37Rv) (UniProt P9WJL5).
T1 sequence: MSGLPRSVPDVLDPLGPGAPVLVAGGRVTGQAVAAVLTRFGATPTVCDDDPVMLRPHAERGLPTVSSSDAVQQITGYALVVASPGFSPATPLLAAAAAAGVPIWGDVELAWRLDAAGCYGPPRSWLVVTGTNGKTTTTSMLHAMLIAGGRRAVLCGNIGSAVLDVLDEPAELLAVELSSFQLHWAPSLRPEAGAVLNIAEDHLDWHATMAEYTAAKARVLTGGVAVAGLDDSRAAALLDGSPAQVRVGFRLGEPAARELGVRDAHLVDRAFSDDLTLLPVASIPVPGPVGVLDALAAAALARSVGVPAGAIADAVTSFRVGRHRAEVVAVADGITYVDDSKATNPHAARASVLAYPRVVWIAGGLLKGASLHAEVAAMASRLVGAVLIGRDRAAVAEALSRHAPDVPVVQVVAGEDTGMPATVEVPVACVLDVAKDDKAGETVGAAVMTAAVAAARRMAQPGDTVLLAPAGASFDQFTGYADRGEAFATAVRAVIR

Test [2] deals with T2, MurE synthetase (Rv2158c) of Mycobacterium tuberculosis, M-PFC fusion (Mycobacterium tuberculosis H37Rv) (UniProt P9WJL3).
T2 sequence: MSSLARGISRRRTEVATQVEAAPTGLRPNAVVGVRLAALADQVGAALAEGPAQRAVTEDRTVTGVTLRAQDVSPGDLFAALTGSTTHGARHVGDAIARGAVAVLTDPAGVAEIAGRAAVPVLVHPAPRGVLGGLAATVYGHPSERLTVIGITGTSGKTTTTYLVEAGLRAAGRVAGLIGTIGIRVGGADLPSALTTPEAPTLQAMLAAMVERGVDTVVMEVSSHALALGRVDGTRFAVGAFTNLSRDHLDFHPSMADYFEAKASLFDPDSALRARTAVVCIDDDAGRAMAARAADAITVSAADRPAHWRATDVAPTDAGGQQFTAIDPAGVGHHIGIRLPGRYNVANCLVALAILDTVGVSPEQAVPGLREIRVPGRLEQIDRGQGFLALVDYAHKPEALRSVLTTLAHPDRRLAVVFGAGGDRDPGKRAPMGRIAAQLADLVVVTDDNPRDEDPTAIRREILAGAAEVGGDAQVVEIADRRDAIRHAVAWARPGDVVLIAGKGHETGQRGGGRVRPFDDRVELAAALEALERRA

Test [3] concerns the target T3, MurC synthetase (Rv2152c) of Mycobacterium tuberculosis, M-PFC fusion (Mycobacterium tuberculosis H37Rv) (UniProt P9WJL7).
T3 sequence: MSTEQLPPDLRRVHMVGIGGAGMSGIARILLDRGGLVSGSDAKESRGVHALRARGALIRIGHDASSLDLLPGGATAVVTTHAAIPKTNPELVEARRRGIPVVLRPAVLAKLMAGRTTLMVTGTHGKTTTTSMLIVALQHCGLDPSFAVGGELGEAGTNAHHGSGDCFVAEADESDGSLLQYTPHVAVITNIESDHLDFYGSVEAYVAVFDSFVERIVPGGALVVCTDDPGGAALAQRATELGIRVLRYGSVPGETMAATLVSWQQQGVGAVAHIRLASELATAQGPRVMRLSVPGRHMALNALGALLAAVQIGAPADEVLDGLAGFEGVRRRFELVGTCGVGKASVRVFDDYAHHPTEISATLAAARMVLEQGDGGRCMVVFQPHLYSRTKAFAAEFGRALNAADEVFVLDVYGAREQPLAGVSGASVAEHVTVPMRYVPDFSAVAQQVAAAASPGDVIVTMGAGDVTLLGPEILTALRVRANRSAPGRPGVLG

Test [4] concerns the target T4, MurF synthetase (Rv2157c) of Mycobacterium tuberculosis, M-PFC fusion (Mycobacterium tuberculosis H37Rv) (UniProt P9WJL1).
T4 sequence: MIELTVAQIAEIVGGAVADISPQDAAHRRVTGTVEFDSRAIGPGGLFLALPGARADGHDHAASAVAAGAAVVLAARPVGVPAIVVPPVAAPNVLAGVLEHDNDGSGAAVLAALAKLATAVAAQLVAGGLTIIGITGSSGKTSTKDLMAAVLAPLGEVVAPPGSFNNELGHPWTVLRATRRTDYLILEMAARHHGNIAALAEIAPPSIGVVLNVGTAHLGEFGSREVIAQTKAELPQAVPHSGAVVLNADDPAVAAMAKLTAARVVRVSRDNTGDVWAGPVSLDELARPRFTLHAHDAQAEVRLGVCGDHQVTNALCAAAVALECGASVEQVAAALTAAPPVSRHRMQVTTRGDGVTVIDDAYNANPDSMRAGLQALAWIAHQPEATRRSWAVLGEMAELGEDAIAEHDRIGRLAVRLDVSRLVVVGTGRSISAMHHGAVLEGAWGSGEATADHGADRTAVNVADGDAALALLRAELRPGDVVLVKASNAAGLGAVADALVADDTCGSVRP

No constants are given. Whether binding was seen depends on the method and setting. Binding seen in cells or lysates may run through a third protein. Some binding calls cover weakened binding; strength is not graded here. Tags and fused reporters may be left off the sequences shown.

B1: D-alanine:D-alanine ligase (DdlA, Rv2981c) of Mycobacterium tuberculosis, M-PFC fusion (enzyme, UniProt P9WP31 1-373)
chain: MSANDRRDRRVRVAVVFGGRSNEHAISCVSAGSILRNLDSRRFDVIAVGITPAGSWVLTDANPDALTITNRELPQVKSGSGTELALPADPRRGGQLVSLPPGAGEVLESVDVVFPVLHGPYGEDGTIQGLLELAGVPYVGAGVLASAVGMDKEFTKKLLAADGLPVGAYAVLRPPRSTLHRQECERLGLPVFVKPARGGSSIGVSRVSSWDQLPAAVARARRHDPKVIVEAAISGRELECGVLEMPDGTLEASTLGEIRVAGVRGREDSFYDFATKYLDDAAELDVPAKVDDQVAEAIRQLAIRAFAAIDCRGLARVDFFLTDDGPVINEINTMPGFTTISMYPRMWAASGVDYPTLLATMIETTLARGVGLH
Turning to B1, the binding result is recorded as “no binding” in test [1], “no binding” in test [2], “no binding” in test [3] and “binds” in test [4].
